# Measured values taken from PubChem BioAssay AID1508642 (National Center for Advancing Translational Sciences (NCATS), 2021).
# Hit rate of the full screen: of about 43,000 compounds, about 200 (0.47%) were called active. The inconclusive results got no clear call from the source; some entries with a clear call stand among them for comparison. Calls come from the whole dose curve; as a rule, active = well fitted cell-killing curve with a large enough effect; inconclusive = small, poorly fitted or top-dose-only effect, or effect the other way; inactive = flat fitted curve, though single readings scatter. A potency beside an inconclusive call is a rough fit, not a confirmed value.
# Assay: Cell viability qHTS assay in S16 Pmp22-F2sN cells; note: nearly all actives have a fitted effect of over 65% in size
# Conditions: S16 Pmp22-F2sN Schwann cells (luciferase reporters placed in the Pmp22 gene) viability, CellTiter-Glo, 24 h; activity change, negative = cytotoxicity: at 57.5 µM (top of the series)
# In short: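 S16 Schwann cells carrying the Pmp22-F2sN reporter, seeded in 1536-well format, were exposed to library compounds for 24 h at 37C. Viability was read as CellTiter-Glo luminescence after 15 min at room temperature.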
# % is set by controls: 0 for no effect and ±100 for the full control effect; potency is the fitted concentration of half-maximal effect; tags give direction and shape of the fitted curve.
Structure (SMILES),"activity change, negative = cytotoxicity",Potency
CCOc1ccc(/C=C/c2nc(C#N)c(NCc3ccccc3)o2)cc1,inactive: -19.4%,–
O=C(C1CCCN(S(=O)(=O)c2cccc3nsnc23)C1)N1CCN(c2ccccc2)CC1 (stereo unspecified),–,"inconclusive: 39.8 µM [cytotoxic, single point]"
Cc1nc2ccc(S(=O)(=O)CCC(=O)Nc3ccc(Cl)cc3)cc2s1,inactive: -6.58%,–
CC(C)Cn1c(-c2ccc(S(=O)(=O)N3CCOCC3)cc2)csc1=Nc1cc(Cl)ccc1Cl,inactive: 1.99%,–
Cc1ccc(C(C)C)c(OCCSc2nc3ccccc3n2CC(O)CO)c1 (stereo unspecified),–,"inconclusive: 39.8 µM [cytotoxic, single point]"
CCc1ccc(C(=O)c2cn(Cc3ccc(F)cc3)c3cc(OC)c(OC)cc3c2=O)cc1,–,"inconclusive: 39.8 µM [cytotoxic, single point]"
CN(C)CCNc1oc(-c2ccc(COc3ccc(Cl)cc3)o2)nc1C#N,–,"inconclusive: 31.6 µM [cytotoxic, single point]"
Cc1cc(NC(=O)CN2C(=O)c3cccnc3Sc3ccccc32)ccc1Br,–,"inconclusive: 28.2 µM [cytotoxic, single point]"
CCN1CCN(c2ncc3c(n2)CC(c2ccccc2O)CC3=O)CC1 (stereo unspecified),inactive: 1.55%,–
CCOc1ccc(NC(=O)Cn2c(=O)n(CC(=O)NCc3ccccc3Cl)c(=O)c3sccc32)cc1,–,"inconclusive: 39.8 µM [cytotoxic, single point]"
CCCCCn1c(=O)[nH]c2cc(C(=O)N3CCN(c4cccc(C(F)(F)F)c4)CC3)ccc2c1=O,–,"inconclusive: 17.8 µM [cytotoxic, partial curve, poor fit]"
CCN(CC)S(=O)(=O)c1ccc2nc(NC(=O)c3cncc(Br)c3)sc2c1,–,"inconclusive: 15.8 µM [cytotoxic, partial curve, poor fit]"
CN1CCc2c(sc3c2C(=O)NC(c2ccc(C(C)(C)C)cc2)N3)C1 (stereo unspecified),–,active: 14.1 µM
COc1ccc(CCNc2ncnc3c2cnn3-c2cc(Cl)ccc2C)cc1,–,"inconclusive: 39.8 µM [cytotoxic, single point]"
CC1=C(C(=O)N2CCN(c3cccc(Cl)c3)CC2)C2(CCCCC2)OC1=O,–,"inconclusive: 8.91 µM [rising, partial curve]"
CCOC(=O)C1CCN(c2nc3c(S(=O)(=O)c4ccc(C)c(C)c4)nnn3c3ccc(Cl)cc23)CC1,inactive: -20.6%,–
CCN(CC)CCCNc1ncnc2c1cnn2-c1ccc(C)c(C)c1,–,"inconclusive: 31.6 µM [cytotoxic, single point]"
Cc1cc(C)cc(NC(=O)Cn2cc(C(=O)C3CCCCC3)c3ccccc32)c1,inactive: 2.05%,–
Cc1ccc(Cl)cc1-n1ncc2c(N3CCN(Cc4ccccc4)CC3)ncnc21,–,"inconclusive: 28.2 µM [cytotoxic, single point]"
CCOC(=O)c1c(NC(=O)c2ccc(S(=O)(=O)N(C)C3CCCCC3)cc2)sc2c1CCN(C(C)C)C2,–,"inconclusive: 17.8 µM [cytotoxic, partial curve, poor fit]"
COc1ccc(-c2nc(S(=O)(=O)c3ccc(Cl)cc3)c(NCc3ccccc3)o2)cc1,–,"inconclusive: 1 µM [rising, full curve, poor fit]"

Structure (SMILES),"activity change, negative = cytotoxicity",Potency
COc1ccc(CNC(=O)C2CCC(CNS(=O)(=O)c3ccc4c(c3)CCCC(=O)N4)CC2)cc1 (stereo unspecified),–,"inconclusive: 39.8 µM [cytotoxic, single point]"
COc1ccc(CNC(=O)CN2C(=O)CSc3ccc(S(=O)(=O)N4CCC(C)CC4)cc32)cc1,inactive: -6.15%,–
Cc1ccc(CCNc2ncnc3onc(-c4ccc(Cl)cc4)c23)cc1,inactive: -16.8%,–
CN(C)S(=O)(=O)c1ccc(C(=O)NCCSc2c(-c3ccccc3)[nH]c3ccccc23)cc1,–,"inconclusive: 39.8 µM [cytotoxic, single point]"
COc1ccc(N(Cc2cc3cccc(C)c3[nH]c2=O)C(=O)c2cccc(Cl)c2)cc1,–,"inconclusive: 7.94 µM [cytotoxic, full curve]"
COc1ccc(CCNC(=O)c2nc(-c3ccc(Cl)cc3)n3c2CCCCC3)c(OC)c1,–,"inconclusive: 39.8 µM [cytotoxic, partial curve, poor fit]"
COc1ccc(-c2nc3ccccc3s2)cc1NC(=O)c1ccccc1F,inactive: -3.14%,–
Cc1oc(-c2ccc(C(=O)NCc3ccccc3)cc2)nc1CN1CCc2ccccc21,–,"inconclusive: 39.8 µM [rising, single point]"
CCC(=O)N1CCc2cc(Br)cc(S(=O)(=O)CCC(=O)N3CCN(c4cccc(C)c4)C(C)C3)c21 (stereo unspecified),–,"inconclusive: 11.2 µM [cytotoxic, partial curve, poor fit]"
CC(=O)N1CCCc2cc(S(=O)(=O)N3CCCC(C(=O)N4CCN(c5ccccc5)CC4)C3)ccc21 (stereo unspecified),–,"inconclusive: 31.6 µM [cytotoxic, single point]"
COc1ccc(-c2[nH]c(-c3ccc(Cl)cc3)nc2SCC(=O)NCC2CCCO2)cc1 (stereo unspecified),–,"inconclusive: 25.1 µM [cytotoxic, single point]"
CCOc1ccc(NC(=O)Cn2c(=O)n(CCCCCC(=O)NCc3ccccc3)c(=O)c3sccc32)cc1,–,active: 20 µM
COc1ccc(-c2nnc(SCC(=O)NCCC(C)C)nc2-c2ccc(OC)c(OC)c2)cc1OC,–,"inconclusive: 39.8 µM [cytotoxic, single point]"
Cc1cc(Nc2cccc(Cl)c2)nc2ccc(NC(=O)c3cncc(Br)c3)cc12,–,"inconclusive: 39.8 µM [cytotoxic, single point]"
COc1ccc(C)c2sc(N3CCN(C(=O)c4cccc(F)c4)CC3)nc12,–,"inconclusive: 39.8 µM [cytotoxic, partial curve, poor fit]"
O=C(CSc1nnc(-c2ccc(Cl)cc2)o1)c1ccc([N+](=O)[O-])cc1,inactive: 24.9%,–
CCn1c(SCc2c(F)cccc2Cl)nc(=O)c2c(C(=O)OC)cc(C3CC3)nc21,–,"inconclusive: 3.55 µM [cytotoxic, partial curve, poor fit]"
CCOC(=O)Cc1ccc(NC(=O)N2CCSc3ccccc32)cc1,–,"inconclusive: 0.0631 µM [cytotoxic, full curve, poor fit]"
CCCN(CCC)CCCNC(=O)C1CCCN(Cc2nc(-c3ccc(Cl)cc3)oc2C)C1 (stereo unspecified),–,"inconclusive: 39.8 µM [cytotoxic, single point]"
COCCNC(=O)C1CCN(C(=O)c2cc3sccc3n2Cc2ccc(Cl)cc2)CC1,–,"inconclusive: 8.91 µM [cytotoxic, partial curve]"
COc1ccc(-c2nc3ccccc3n3c(-c4cccc(C)c4)c4c(=O)n(C)c(=O)n(C)c4c23)cc1OC,–,"inconclusive: 39.8 µM [cytotoxic, single point]"

Structure (SMILES),"activity change, negative = cytotoxicity",Potency
O=C(CCS(=O)(=O)c1cc(Br)cc2c1N(C(=O)C1CC1)CC2)N1CCN(c2cccc(Cl)c2)CC1,–,"inconclusive: 28.2 µM [cytotoxic, partial curve, poor fit]"
CC1=C(C(=O)OC2CCCC2)C(c2c(Cl)cccc2Cl)CC(=O)N1 (stereo unspecified),–,"inconclusive: 31.6 µM [rising, partial curve, poor fit]"
CC(=O)N1CCCc2cc(S(=O)(=O)N3CCCC(C(=O)NCc4ccccc4Cl)C3)ccc21 (stereo unspecified),inactive: -25.8%,–
COc1cccc(NC(=O)CSc2nc3c([nH]c4ccccc43)c(=O)n2-c2cc(C)cc(C)c2)c1,inactive: -2.2%,–
CC1CCc2c(cc(-c3ccccc3)n2-c2ccc(C(=O)NC(C)C)cc2)C1 (stereo unspecified),inactive: 13.4%,–
Cc1cccc(NC(=O)CSc2ncc(-c3ccccc3)[nH]2)c1C,–,"inconclusive: 14.1 µM [cytotoxic, partial curve, poor fit]"
O=C(C1CCN(c2ncnc3c2nc2n3CCCCC2)CC1)N1CCN(c2ccccc2F)CC1,–,"inconclusive: 28.2 µM [cytotoxic, partial curve, poor fit]"
CCCCCCNc1nc2c(c(=O)n(C)c(=O)n2C)n1Cc1cccc(C)c1,–,"inconclusive: 0.316 µM [cytotoxic, full curve, poor fit]"
CCOC(=O)c1ccc(NC(=O)c2cnn(-c3ccc(C)cc3C)c2C2CCN(C(=O)OC(C)(C)C)CC2)cc1,–,"inconclusive: 14.1 µM [cytotoxic, partial curve]"
CCc1ccc2ncc(S(=O)(=O)c3ccc(Cl)cc3)c(N3CCN(CC)CC3)c2c1,–,"inconclusive: 39.8 µM [cytotoxic, single point]"
CCCCOc1ccc(C(=O)N2CC(=O)Nc3ccc(Br)cc3C2c2ccc(F)cc2)cc1 (stereo unspecified),–,"inconclusive: 39.8 µM [cytotoxic, single point]"
COc1ccc(C)cc1NS(=O)(=O)c1c(C)nc2sc(C)cn2c1=O,inactive: 0.249%,–
COc1cc(OC)c(NC(=O)c2cc(C(C)=O)n3ccccc23)cc1Cl,–,"inconclusive: 39.8 µM [cytotoxic, single point]"
CN(C)CCN(Cc1ccccc1)S(=O)(=O)c1ccc(-c2cc(C(F)(F)F)on2)s1,–,"inconclusive: 39.8 µM [cytotoxic, single point]"
COc1ccc(NC(=O)c2sc3nc(C)c(C(=O)Nc4ccc(C)cc4C)c(-c4ccccc4Cl)c3c2N)cc1,–,"inconclusive: 10 µM [cytotoxic, partial curve]"
Fc1ccc(-c2cn3cc(Cc4ccccc4Cl)sc3n2)cc1,inactive: -1.29%,–
Cc1ccc(NC(=O)/C(C#N)=C/c2cc(C)n(-c3ccc(Br)cc3)c2C)cc1C,inactive: -9.92%,–
COCCCNC(=O)c1ccc(Cn2c(=O)c3ccccc3n(Cc3ccccc3C)c2=O)cc1,inactive: 1.59%,–
CN(C)CCN(Cc1ccco1)C(=O)c1cc2c(s1)-c1ccccc1OC2,–,"inconclusive: 31.6 µM [cytotoxic, single point]"
